{"source": "PubChem BioAssay AID1159614", "about": "(National Center for Advancing Translational Sciences (NCATS), 2016)", "note": "Among all 45,000 compounds or so, about 65 (0.1%) were called active. Calls come from the whole dose curve; as a rule, active = well fitted activation curve with a large enough effect; inconclusive = small, poorly fitted or top-dose-only effect; inactive = no such curve, though single readings can be large or run the other way. The list shows a part of the results."}
{"biological_target": "Galactocerebrosidase (Homo sapiens) (UniProt P54803)", "sequence (P54803 whole entry, looked up)": "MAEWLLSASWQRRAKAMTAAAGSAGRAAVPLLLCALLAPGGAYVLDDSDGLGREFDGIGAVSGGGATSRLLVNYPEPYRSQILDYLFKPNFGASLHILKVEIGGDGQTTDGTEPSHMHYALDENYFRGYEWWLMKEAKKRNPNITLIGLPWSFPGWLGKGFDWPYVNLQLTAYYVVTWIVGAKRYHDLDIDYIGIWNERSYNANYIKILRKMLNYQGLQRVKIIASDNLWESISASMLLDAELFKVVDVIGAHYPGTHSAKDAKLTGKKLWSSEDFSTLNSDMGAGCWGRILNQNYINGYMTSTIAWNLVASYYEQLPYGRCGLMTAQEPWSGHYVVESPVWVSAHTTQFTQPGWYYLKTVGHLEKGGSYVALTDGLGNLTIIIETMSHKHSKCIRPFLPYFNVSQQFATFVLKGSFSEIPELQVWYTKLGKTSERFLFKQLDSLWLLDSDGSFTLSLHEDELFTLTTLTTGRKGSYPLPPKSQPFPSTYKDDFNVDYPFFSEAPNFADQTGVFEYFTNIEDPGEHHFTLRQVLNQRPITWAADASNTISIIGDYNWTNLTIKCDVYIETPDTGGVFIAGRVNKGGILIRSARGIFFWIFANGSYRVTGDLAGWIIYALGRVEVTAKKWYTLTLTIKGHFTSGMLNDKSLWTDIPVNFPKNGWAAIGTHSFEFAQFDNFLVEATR", "assay": "A Novel Cell-Based Assay to Identify Small Molecules for B -Galactocerebrosidase; note: 0% is about no effect; nearly all actives have a fitted effect of over 65% in size", "conditions": "145M-Twi-hGALC-G270D cells (Twitcher mouse brain line with human GALC G270D), HMU-beta-Gal fluorescence, 48 h; series mostly up to 57.5 µM; activation: at the top concentration", "how_it_was_run": "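Fluorescence readout: HMU-β-gal cleavage by mutant GALC (0.1 mM final, citrate/phosphate pH 5.2 with 1 mg/mL taurocholate), stopped with carbonate/bicarbonate plus Triton X-100. Cells: murine Twitcher 145M-Twi expressing human G270D GALC; qHTS for activators.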"}
{"smiles": "O=C(Cn1cc(SCc2ccc(F)cc2)c2ccccc21)N1CCCC1", "activation": "inactive: -9.34%"}
{"smiles": "Cc1cc(C)c(NC(=O)c2ccc3nc(C(C)C)oc3c2)c(C)c1", "activation": "inactive: -7.73%"}
{"smiles": "CCOCCn1c(=NC(=O)c2ccc3c(c2)OCCO3)sc2cc(OCC)ccc21", "activation": "inactive: -13.9%"}
{"smiles": "COCC(C)NC(=O)C1=CC(c2ccc3c(c2)OCO3)=NS(=O)(=O)N1C", "note": "(stereo not given)", "activation": "inactive: -9.69%"}
{"smiles": "COc1ccc(NCc2cccn2-c2nnc(N3CCC(C)CC3)s2)c(OC)c1", "activation": "inactive: -5.76%"}
{"smiles": "CCc1ccc(NC(=O)C(=O)NCCc2sc(-c3ccc(C)cc3)nc2C)cc1", "activation": "inactive: -18.1%"}
{"smiles": "O=C(CSc1nc2c(c(=O)[nH]1)CCC2)Nc1cc(C(F)(F)F)ccc1Cl", "activation": "inactive: -13.1%"}
{"smiles": "CSc1ccc(-c2nc3cc(C)ccn3c2Nc2ccc(C)cc2)cc1", "activation": "inactive: -13.8%"}
{"smiles": "Cc1cccc(-c2nc(S(=O)(=O)c3ccccc3)c(N3CCN(c4ccccc4)CC3)o2)c1", "activation": "inactive: -6.44%"}
{"smiles": "CCc1cccc(NC(=O)CSc2nccn2C)c1", "activation": "inactive: -9.33%"}
{"smiles": "Cc1ccc(C(=O)c2cn(Cc3ccccc3)c3cc4c(cc3c2=O)OCCO4)cc1", "activation": "inactive: -10.6%"}
{"smiles": "COc1c(Cl)cc(Cl)cc1C(=O)Nc1cccc2cccnc12", "activation": "inactive: -17.8%"}
{"smiles": "CCOC(=O)c1cc(S(=O)(=O)Nc2cc(C)c(Cl)cc2OC)[nH]n1", "activation": "inactive: -3.1%"}
{"smiles": "Cn1ccc2c(OCC(=O)NCc3ccc(F)cc3)cccc2c1=O", "activation": "inactive: -11.4%"}
{"smiles": "CCOC(=O)c1cc(-c2ccccc2)n(CC(=O)Nc2cc(Cl)c(OC)cc2OC)c1C", "activation": "inactive: 4.91%"}
{"smiles": "Cc1cc(C)cc(Nc2ncnc3sc4c(c23)CCCC4)c1", "activation": "inactive: 3.31%"}
{"smiles": "CC(C)OCCCNC(=O)c1c2c(nc3ccccc13)C(=O)N(C1CCCCC1)C2", "activation": "inactive: -17%"}
{"smiles": "Cc1ccn2c(Nc3ccc(C(C)C)cc3)c(-c3ccsc3)nc2c1", "activation": "inactive: -5.72%"}
{"smiles": "Cc1cccc(Cn2c(CNC(=O)c3ccccc3)nc3ccccc32)c1", "activation": "inactive: -14.5%"}
{"smiles": "CC(=O)c1ccc(NC(=O)CSc2nnc(NC(=O)NC3CCCCC3)s2)cc1", "activation": "inactive: -6.11%"}
{"smiles": "CCCCCOc1ccccc1Cn1c(=O)oc2ccc(C)cc21", "activation": "inactive: -0.856%"}
{"smiles": "Cc1ccc(Nc2c(-c3ccc(N4CCOCC4)cc3)nc3ncccn23)c(C)c1", "activation": "inactive: -7.47%"}
{"smiles": "COCCNC(=O)CCSc1nc(-c2ccc(OC)cc2)cc(C(F)(F)F)n1", "activation": "inactive: -5.27%"}
{"smiles": "Cc1nn(C(C)C(=O)Nc2cccc(F)c2)c(=O)c2c1sc1ccccc12", "note": "(stereo not given)", "activation": "inactive: 2.3%"}
{"smiles": "O=C(Cn1c(-c2cccs2)cc2ccccc21)NCCCN1CCN(c2ccc(F)cc2)CC1", "activation": "inactive: -2.93%"}
{"smiles": "CC1CCCN(Cc2c(O)ccc3c(=O)c(-c4ccccc4Cl)c(C(F)(F)F)oc23)C1", "note": "(stereo not given)", "activation": "inactive: 3.49%"}
{"smiles": "O=C(NC1CCCC1)c1ccc(CSc2nc3cccnc3n2Cc2ccccc2F)cc1", "activation": "inactive: -6.75%"}
{"smiles": "Cc1ccccc1C(OCCN(C)C)c1ccccc1", "note": "(stereo not given)", "activation": "inactive: 7.98%"}
{"smiles": "O=C(COc1ccc(Cl)cc1)N(Cc1ccco1)c1ccccn1", "activation": "inactive: 14.4%"}
{"smiles": "Cc1cc(C)c(NS(=O)(=O)c2ccc3c(c2)NC(=O)CCS3)c(C)c1", "activation": "inactive: -2.95%"}
{"smiles": "Cc1c(I)c(=O)n(-c2ccccc2)n1C", "activation": "inactive: -12%"}
{"smiles": "Cc1ccc(NC(=O)CCCN2C(=O)COc3ccc(C)cc32)c(Cl)c1", "activation": "inactive: -4.85%"}
{"smiles": "CCOC(=O)c1cnc2ccc(OC(F)(F)F)cc2c1Nc1ccccc1C(=O)O", "activation": "inactive: 2.12%"}
{"smiles": "CCC1Oc2ccc(C)cc2N(CC(=O)NCCc2ccccc2)C1=O", "note": "(stereo not given)", "activation": "inactive: -9.71%"}
{"smiles": "COc1ccc(-c2cnc(C)o2)cc1S(=O)(=O)Nc1cccc(C(F)(F)F)c1", "activation": "inactive: -7.36%"}
{"smiles": "O=C(Nc1cccc(C(F)(F)F)c1)C1CCN(S(=O)(=O)c2cccc3nsnc23)CC1", "activation": "inactive: 5.95%"}
{"smiles": "CCOC(=O)c1cnn2c(C(F)(F)F)cc(-c3ccc(Br)cc3)nc12", "activation": "inactive: -0.891%"}
{"smiles": "CCc1ccccc1NS(=O)(=O)c1ccc2[nH]cc(C(=O)NC3CCCC3)c(=O)c2c1", "activation": "inactive: -4.56%"}
{"smiles": "NC(=O)C1CCN(c2ncnc3c2cnn3-c2cccc(Cl)c2)CC1", "activation": "inactive: -12.4%"}
{"smiles": "CC(C)COc1ccc(C(=O)Nc2onc3c2CCCC3)cc1", "activation": "inactive: 13.8%"}
{"smiles": "Cc1ccc(NC(=O)Cn2nc(C(F)(F)F)c3c2CCC3)cc1C", "activation": "inactive: -7.41%"}
{"smiles": "CCOc1ccc(CCNC(=O)CCn2c(=O)c3cccn3c3ccc(F)cc32)cc1", "activation": "inactive: 0.477%"}
{"smiles": "O=C(Nc1ccc(OCc2cc(=O)n3c4c(sc3n2)CCCC4)cc1)c1ccc(F)cc1", "activation": "inactive: -11.2%"}
{"smiles": "COc1ccc(-n2nnnc2SCC(=O)NCCc2ccccc2)cc1", "activation": "inactive: -13.2%"}
{"smiles": "Cc1ccccc1-c1noc(CSc2nc(-c3ccc(F)cc3)cc(=O)[nH]2)n1", "activation": "inactive: 5.96%"}
{"smiles": "COC(=O)Cc1c(C)c2ccc3c(c2oc1=O)CN(Cc1ccc(C)cc1)CO3", "activation": "inactive: -19.8%"}
{"smiles": "CCc1ccc(N2CC(c3nc4ccccc4n3Cc3ccccc3C)CC2=O)cc1", "note": "(stereo not given)", "activation": "inactive: -30%"}
{"smiles": "CCOc1ccc(C(=O)NCCc2sc(-c3cccc(F)c3)nc2C)cc1OCC", "activation": "inactive: -10.9%"}
{"smiles": "Cc1cccc(CNC(=O)CCCN2C(=O)c3cccnc3Oc3ccccc32)c1", "activation": "inactive: -7.83%"}
{"smiles": "COc1ccc(-c2noc(-c3ccc(NCc4ccco4)c([N+](=O)[O-])c3)n2)cc1OC", "activation": "inactive: 0.933%"}
{"smiles": "O=C(CSc1oc(-c2cccs2)nc1S(=O)(=O)c1ccccc1)Nc1ccc(F)cc1", "activation": "inactive: -8.83%"}
{"smiles": "CN(C(=O)CSc1nc2ccc(NC(=O)c3ccccc3)cc2s1)c1ccccc1", "activation": "inactive: -32.4%"}
{"smiles": "COc1ccc(Cn2c(NCC(C)C)nc3c2c(=O)n(C)c(=O)n3C)cc1", "activation": "inactive: -14.5%"}
{"smiles": "Cc1ccc(C2=NN(CCC(=O)NCCc3cccc(C)c3)C(=O)CC2)cc1", "activation": "inactive: 11.2%"}
{"smiles": "CCOC(=O)CSc1nc(-c2ccc(OC)cc2)cc(C(F)(F)F)c1C#N", "activation": "inactive: -6.52%"}
{"smiles": "COc1cc(CN(C(=O)c2ccc(C)cc2)c2ccccn2)cc(OC)c1OC", "activation": "inactive: -26.2%"}
{"smiles": "Cc1ccc(-n2nc(C)c3c(C(=O)Nc4ccc(C)cc4Cl)cc(C)nc32)cc1", "activation": "inactive: -9.99%"}
{"smiles": "COc1ccc(OC)c(CNC(=O)c2cnc(N(C)C)nc2)c1", "activation": "inactive: -8.19%"}
{"smiles": "CC(=O)Nc1cccc(-c2nnc(SCC(=O)c3ccc([N+](=O)[O-])cc3)o2)c1", "activation": "inactive: -14.8%"}
{"smiles": "CCOc1ccccc1/C=C/c1onc(C)c1S(=O)(=O)N1CCC(C(=O)N2CCCCC2)CC1", "activation": "inactive: -10.6%"}
{"smiles": "COc1ccc(C(=O)CC2(O)C(=O)N(CCc3ccccc3)c3ccc(Br)cc32)cc1OC", "note": "(stereo not given)", "activation": "inactive: -5.84%"}
{"smiles": "O=S(=O)(c1ccc2nc(Nc3ccc(Br)cc3F)ccc2c1)N1CCCC1", "activation": "inactive: 0.563%"}
{"smiles": "COc1ccc(-n2nc(C(=O)N3CCN(c4cccc(C)c4)C(C)C3)c3c4ccccc4n(C)c3c2=O)cc1Cl", "note": "(stereo not given)", "activation": "inactive: -9.42%"}
{"smiles": "O=C(Cn1nc2c(cc1=O)CCCC2)NCc1ccccc1", "activation": "inactive: -7.33%"}
{"smiles": "Cc1ccccc1-c1noc(-c2ccc(NC3CCCC3)c([N+](=O)[O-])c2)n1", "activation": "inactive: -2.28%"}
